Measurements from PubChem BioAssay AID686978 (National Center for Advancing Translational Sciences (NCATS), 2013).
Screen size: about 420,000 compounds; about 64,000 (15%) were called active. This list was built around the results that the source calls inconclusive (neither active nor inactive); the mix of calls is not that of the screen. The call rests on the fitted dose curve; in most records, active means well fitted inhibition curve with a large enough effect; inconclusive means small, poorly fitted or top-dose-only effect; inactive means flat fitted curve, though single readings scatter. No potency is given beside an inconclusive call; the fits are too rough.

Assay: qHTS for Inhibitors of human tyrosyl-DNA phosphodiesterase 1 (TDP1): qHTS in cells in absence of CPT; further: nearly all actives have a fitted effect of over 55% in size
Conditions: DT40 Tdp1-/- hTDP1 cells, no CPT, ATP luminescence, 48 h; activity change, negative = growth inhibition: at 46.2 µM (top of the series)
Summary of the method: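 Camptothecin absent (DMSO only). Human TDP1-complemented DT40 knockout cells, 400 cells/well, 37 °C for minimum 48 hr; ATP measured via CellTiter-Glo, 30 min dark incubation, luminescence.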
On the % scale 0 is the no-effect control and ±100 the full control effect; potency means the concentration at half of the fitted maximal effect; tags describe the fitted curve by direction and shape.

Structure (SMILES) | Potency | activity change, negative = growth inhibition
Cc1cccc(NC(=O)c2ccccc2NC(=O)c2ccccc2)n1 | active: 18.4 µM | 
Cc1ccc(N2CCN(C3=NC(=O)C(Cc4ccccc4)S3)CC2)cc1 (stereo unspecified) | active: 23.1 µM | 
CC(C)c1ccc(C(=O)CSc2n[nH]c(-c3ccncc3)n2)cc1 | inconclusive [inhibitor, single point] | 
CCCN(CCC)S(=O)(=O)c1cc2c(cc1Br)CCN2C(=O)CC | active: 5.8 µM | 
COc1cccc(N2CC(NC(=O)c3ccc(S(=O)(=O)N4CCCC4)cc3)CC2=O)c1 (stereo unspecified) | inactive | 
Cc1ccccc1CSc1nnc(-c2ccccn2)n1C | inconclusive [inhibitor, partial curve] | 
CCOC(=O)c1cnc2c(c(C)nn2C)c1Oc1ccc(Cl)cc1 | inconclusive [inhibitor, partial curve] | 
Cc1cc(-c2csc(NC(=O)c3ccc(S(=O)(=O)N(C)C)cc3)n2)c(C)n1-c1ccccc1 | active: 18.4 µM | 
CS(=O)(=O)c1ccc(Cl)c(NC(=O)COC(=O)/C=C/c2cnc3ccccc3n2)c1 | inactive | 
COc1ccc(S(=O)(=O)N2CCCCCC2)cc1C(=O)N(C)Cc1ccco1 | active: 18.4 µM | 
O=C(NCc1ccc(F)cc1)c1cccc2c1C(=O)c1ccc(N3CCC(Cc4ccccc4)CC3)cc1S2(=O)=O | inconclusive [inhibitor, partial curve] | 
CSCCC(NC(=O)c1ccccc1Cl)C(=O)NCC(c1cccs1)N(C)C (stereo unspecified) | inactive | 
CCOC(=O)c1[nH]c(C)c(CCC(=O)N2CCN(c3ccccc3)CC2)c1C | inconclusive [inhibitor, single point] | 
CC(Oc1ccc(Br)cc1)c1nc2c3ccccc3nc(=S)n2[nH]1 (stereo unspecified) | active: 14.6 µM | 
CCN1CCN(S(=O)(=O)c2ccc3c4c(cccc24)C(=O)N3CC)CC1 | inconclusive [inhibitor, single point] | 
CC1Sc2ccc(S(=O)(=O)N3CCN(c4ccccc4)CC3)cc2NC1=O (stereo unspecified) | inconclusive [inhibitor, single point] | 
CCOC(=O)c1c(C)oc2nc(C)nc(NCC3CCN(Cc4ccc(Cl)cc4)CC3)c12 | inconclusive [inhibitor, single point] | 
O=C(COC(=O)COc1ccccc1[N+](=O)[O-])Nc1ccc2c(c1)OCO2 |  | inconclusive: -8.09% [inhibitor]
O=C(Nc1cccc(Cl)c1)Nc1c[nH]c(=O)[nH]c1=O | inactive | 
O=c1cc(-c2ccccc2)oc2ccc3ccccc3c12 | inconclusive [inhibitor, partial curve, poor fit] | 
Cc1ccc(CN(C(=O)CNC(=O)c2cccs2)C(C(=O)NCC2CCCO2)c2ccccc2)cc1 (stereo unspecified) | inconclusive [inhibitor, single point] | 
CC(=O)Nc1cccc(Nc2nc(-c3ccccc3F)nc3ccccc23)c1 | inconclusive [inhibitor, single point] | 
Cc1ccc(NC(=S)N2CCCCCC2)c(C)c1 | inconclusive [inhibitor, single point] | 

Structure (SMILES) | Potency | activity change, negative = growth inhibition
CCOC(=O)C1CCCN(C(=O)c2ccc3c(=O)n(CCOC)c(=S)[nH]c3c2)C1 (stereo unspecified) | inconclusive [inhibitor, partial curve, poor fit] | 
CC(C)CC1Nc2ncnc(N3CCCCC3)c2N(Cc2ccc(Br)cc2)C1=O (stereo unspecified) | active: 16.4 µM | 
Cc1cccn2c(=O)c(/C=C(\C#N)C(N)=O)c(Oc3ccccc3)nc12 | inconclusive [inhibitor, partial curve] | 
CC1CC(C)(C)CC2(C1)NC(=O)N(CC(=O)Nc1ccc(N3CCCCC3)cc1)C2=O (stereo unspecified) | inconclusive [inhibitor, single point] | 
COc1ccc(-c2cc(NCc3ccc(F)cc3)n3cnnc3n2)cc1 | inconclusive [inhibitor, single point] | 
Cc1ccc(S(=O)(=O)N(C)C)cc1NC(=O)c1cc(=O)c2ccccc2o1 | inconclusive [inhibitor, single point] | 
Cc1ccc(S(=O)(=O)N2CCC(=O)N(C(COCc3ccccc3)C(C)C)CC2)cc1 (stereo unspecified) | inconclusive [inhibitor, single point] | 
CCCCCCCOc1ccc(C(=O)Nc2cccnc2)cc1 | inconclusive [inhibitor, single point] | 
CCc1ccc(-c2ccc(C(=O)C(F)(F)F)[nH]2)cc1 | inactive | 
CCOc1ccc(NC(=O)CN2CCN(CC(=O)Nc3ccc(Cl)c(C(F)(F)F)c3)CC2)cc1 | active: 9.2 µM | 
O=C(COC(=O)C1CCN(c2ccc(C(F)(F)F)cn2)CC1)c1ccc(F)cc1 | inactive | 
CC(=O)c1cccc(S(=O)(=O)NCCCN2CCOCC2)c1 | inactive | 
N#Cc1ccccc1COC(=O)c1ccc(Br)o1 | inactive | 
COc1ccccc1Cc1c(-c2ccc(Cl)cc2)nc2c(C)cc(Br)cn12 | active: 7.31 µM | 
O=C(Nc1cc(S(=O)(=O)N2CCOCC2)ccc1Cl)c1cc(=O)c2ccccc2o1 | active: 20.6 µM | 
COC(=O)/N=C/c1c(NCc2ccccc2)nc2c(C)cccn2c1=O | inconclusive [inhibitor, partial curve] | 
O=C(Cc1ccccc1)Nc1sc2c(c1C(=O)Nc1ccccc1Cl)CCC2 | inactive | 
COc1ccc(C2C3=C(Nc4ncnn42)c2ccccc2CCC3)cc1 (stereo unspecified) | inactive | 
CCOCCCNC(=O)c1cc2c(=O)n(CC)c3ccccc3c2s1 | inconclusive [inhibitor, single point] | 
CCN(CC)C(=O)C1CCN(S(=O)(=O)c2ccc(C3CNC(=O)C3)cc2)CC1 (stereo unspecified) | inactive | 
COc1ccccc1/C=C/c1ccnc2ccccc12 | active: 14.1 µM | 
Cc1ccc(N2C(=O)[C@@H]3C(c4cccnc4)=NO[C@@H]3C2=O)cc1 | inconclusive [inhibitor, single point] | 
COc1ccc(NC(=O)N(C)[C@H]2C[C@H]3c4[nH]c5ccccc5c4CCN3C[C@H]2[C@H](C)O)cc1 | inconclusive [inhibitor, single point] | 
